# Results from the BET-seq Pho4 binding data (Le et al. 2018).
# This is one part of the list. The energies were worked out here from pooled read counts, against the library average; single values are noisy.
# Biological target: T1, Pho4 (S. cerevisiae) (UniProt P07270)
# T1 sequence: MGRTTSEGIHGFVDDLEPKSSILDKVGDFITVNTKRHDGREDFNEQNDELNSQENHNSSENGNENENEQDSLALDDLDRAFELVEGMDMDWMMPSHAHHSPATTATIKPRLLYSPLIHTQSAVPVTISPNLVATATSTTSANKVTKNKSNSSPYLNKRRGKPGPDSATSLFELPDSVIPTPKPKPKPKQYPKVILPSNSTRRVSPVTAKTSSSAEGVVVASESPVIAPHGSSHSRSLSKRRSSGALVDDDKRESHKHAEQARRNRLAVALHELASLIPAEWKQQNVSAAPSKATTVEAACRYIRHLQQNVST
# Assay: relative binding free energy (BET-seq); higher = weaker binding
# Conditions: reference: library average
row,Sequence,relative binding free energy [kJ/mol]
1,AGATGCACGTGGTTCT,0.335
2,TAATACACGTGTGGAT,0.418
3,GGCTGCACGTGGGAAG,-0.628
4,TTATCCACGTGTGTGG,-0.0837
5,TAGGGCACGTGTGGCG,-0.251
6,TGTGACACGTGGGCGA,-0.753
7,ATGTGCACGTGGCGTT,-1.05
8,ATGTGCACGTGAAATT,0.586
9,AGCAGCACGTGGGTTG,-1.55
10,TAGTTCACGTGAAGCT,1.26
11,GTAATCACGTGGCGAT,0.544
12,TTTGCCACGTGGATGT,-0.0837
13,AAAGTCACGTGTATAT,0.209
14,TCTAACACGTGTGTGT,-0.167
15,AATTGCACGTGTGGAA,0.418
16,GTTTACACGTGTTTAG,0.795
17,GGGGACACGTGTGAGC,1.05
18,GGGAGCACGTGCTGGC,-0.167
19,TGTAACACGTGATATG,-0.167
20,TGCGGCACGTGGATAG,-0.795
21,GATAGCACGTGATTGG,0.669
22,AGTATCACGTGTTTCG,1.13
23,TTGTTCACGTGCGGTA,0.753
24,AGGGGCACGTGTGTGC,-0.628
25,TACTGCACGTGGGGGA,-0.46
26,TGCATCACGTGGTATG,0.251

row,Sequence,relative binding free energy [kJ/mol]
1,AAGACCACGTGTGGGT,-0.335
2,ATGTACACGTGGCAGT,0.46
3,GAGCGCACGTGGGGCA,-0.711
4,GGGTGCACGTGGAATG,0.335
5,GAACGCACGTGAGGGG,0.753
6,AGGATCACGTGGTGGG,0.711
7,GGGGCCACGTGGTGTG,-0.293
8,TTCATCACGTGAATTG,1.46
9,ATGGACACGTGGTAGA,0.628
10,CGATTCACGTGTGGCG,0.837
11,GTTCTCACGTGTTGAT,0.962
12,TTGAGCACGTGAGAGT,0.502
13,GGTAGCACGTGTGTTG,-0.335
14,GTCAACACGTGGGGTG,0.167
15,CTGTTCACGTGGGGCT,0.167
16,ACGTGCACGTGGGGGC,-1.09
17,GATGGCACGTGGTAGC,-0.377
18,CTGTCCACGTGAGGGG,0.377
19,GGAGACACGTGCGGCG,0.795
20,TGGGGCACGTGTATAC,-0.879
21,GGCTTCACGTGAATGG,1.88
22,TGCTTCACGTGGATGG,0.628
23,GTGTCCACGTGGGTCG,0.335
24,ATGGGCACGTGTTGTT,-0.335
25,TATGGCACGTGTGGCG,-0.0418
26,AGGGACACGTGCTAGG,-0.126

row,Sequence,relative binding free energy [kJ/mol]
1,ATTGTCACGTGTTAAC,0.795
2,AATTTCACGTGTAGGA,1.09
3,CGTGGCACGTGGTCGA,-0.753
4,GGAGTCACGTGTCTGG,1.05
5,GAGTCCACGTGTGAGT,1.38
6,AGGTTCACGTGGGCAA,0.418
7,TAGGGCACGTGTCGTA,-0.251
8,GGGGGCACGTGCCATT,-0.377
9,GTTGACACGTGGTAAT,0
10,AAGAGCACGTGCGGGG,-0.628
11,ATGATCACGTGGGAAA,1.09
12,ATGTACACGTGCTGGT,-0.0418
13,TAGTGCACGTGCTTGA,0.167
14,GGCATCACGTGGGTTT,0.795
15,GTTCGCACGTGTGGAA,0.753
16,GGAGGCACGTGTATTA,-0.418
17,TTGTGCACGTGGAACA,-0.167
18,GTGCGCACGTGGTCGG,-0.962
19,ATGCACACGTGGGTTT,-0.418
20,AGCGGCACGTGATGAT,0.586
21,GGGCGCACGTGAGAGT,0.837
22,AATGCCACGTGGTTTA,-0.586
23,GAACGCACGTGAGGGA,1.59
24,TTCTGCACGTGTAAGG,0.795
25,GCGTCCACGTGGGGGG,-0.209
26,CTTGGCACGTGAAGGT,0.502

row,Sequence,relative binding free energy [kJ/mol]
1,TATTCCACGTGGTGGG,-0.0418
2,TGAGGCACGTGTGTAG,-0.293
3,CGGAGCACGTGGGGCT,-0.879
4,ATGATCACGTGGTTCG,0.293
5,TATTACACGTGCTGTG,0.126
6,GGCGTCACGTGGTAGG,0.377
7,GGGTACACGTGTTATT,0.628
8,GGGTTCACGTGCCGGT,1.88
9,GCTTGCACGTGTATGG,0
10,ATTCGCACGTGGGGCT,-0.962
11,GATGACACGTGTAATG,1.51
12,TTTAACACGTGCTGTA,-0.167
13,TGAACCACGTGATGTG,0.669
14,TTGAGCACGTGGCGGC,-0.711
15,TAGGACACGTGGACGG,-0.0418
16,ATATTCACGTGGTCTA,0.335
17,TTTGGCACGTGTGACG,-0.167
18,TGGTTCACGTGGGACG,1.51
19,TGGATCACGTGTGTCG,0.92
20,GGATACACGTGGTGGA,-0.167
21,CAGGCCACGTGGGGAG,-0.502
22,GTTATCACGTGGTAGG,0.628
23,AGAAACACGTGTTGGA,0.544
24,CTGTTCACGTGGGGTT,0.753
25,TGGGTCACGTGGCAGC,0.209
26,TGTTTCACGTGTAGGC,1.55

row,Sequence,relative binding free energy [kJ/mol]
1,TTGCGCACGTGTATAT,-0.377
2,TTTGGCACGTGATTTT,0.293
3,GTTTCCACGTGTGTTA,0.837
4,TAATGCACGTGAGTAG,0.418
5,CGTGGCACGTGTAAGG,0.586
6,ATGAACACGTGTTTTG,-0.251
7,GGGCGCACGTGTTATG,0.209
8,CTAGTCACGTGATGTG,0.46
9,AGGGTCACGTGGTAAA,0.46
10,TGCGTCACGTGCATGG,0.209
11,ATGTACACGTGCAGTG,-0.251
12,TGCGTCACGTGCTAGG,-0.293
13,GTGGTCACGTGTAAGG,0.669
14,GGGGGCACGTGGTGTT,-0.502
15,CAGTTCACGTGAAGTT,1.72
16,TGCGGCACGTGTTGCG,-0.795
17,GAAGGCACGTGTATTT,0.209
18,AGGGTCACGTGAGCGC,1.05
19,TACGTCACGTGGGTAT,-0.502
20,TCAAGCACGTGGTGTG,-0.92
21,TAAGGCACGTGTCGGA,-0.126
22,AGAGGCACGTGTCGTG,-0.293
23,CGCTGCACGTGTAGTT,0.126
24,GTAGGCACGTGGTCTT,-0.544
25,GATGGCACGTGAAGTG,1.8
26,GTTCACACGTGGGGGT,0.335

row,Sequence,relative binding free energy [kJ/mol]
1,GGACTCACGTGGTGTA,0.879
2,GTTTTCACGTGTGCTG,0.962
3,TTGGGCACGTGTTAGG,-0.167
4,AAGTTCACGTGCGTAG,0.837
5,TAATTCACGTGGGATG,0.418
6,GGCGGCACGTGGCTAG,-0.586
7,AGATGCACGTGATAGG,-0.0837
8,AAAGGCACGTGTACGG,-0.711
9,TGTATCACGTGGACAT,0.879
10,TGGTGCACGTGTATAG,-0.335
11,TTCTGCACGTGCGGGA,-0.167
12,AGAGGCACGTGGCCTG,-0.46
13,TTTGGCACGTGCATAT,-0.753
14,GAAGGCACGTGTTGGG,-0.126
15,GGGTGCACGTGGTTGC,-0.167
16,TGATTCACGTGTAGAG,0.711
17,AGCGTCACGTGTTGTC,0.293
18,GTGGACACGTGCTTAT,0.377
19,TTGGTCACGTGGCATG,0.167
20,GTGCGCACGTGTTGTC,-0.418
21,GAAGGCACGTGGTAGG,-0.92
22,GGGTTCACGTGGTGAA,0.837
23,TTAATCACGTGGAAGG,0.837
24,TGTTGCACGTGTGATG,0.209
25,TGGAGCACGTGCGGTC,-0.377
26,AAGAGCACGTGCTGTT,-0.293

row,Sequence,relative binding free energy [kJ/mol]
1,CGTTTCACGTGTTGGT,0.879
2,GTAGTCACGTGCGTGT,0.293
3,GGTGTCACGTGGATCG,0.586
4,GGTGCCACGTGCGGTA,-0.46
5,AGCGTCACGTGGGGAG,-0.92
6,GTGCGCACGTGAAAGG,1.38
7,CATTTCACGTGTTAGG,1.17
8,TGGGTCACGTGGACTC,1.3
9,TTGGGCACGTGTCGCA,-0.628
10,GATACCACGTGTGGGT,-0.335
11,GATTTCACGTGTGTGG,1.05
12,TACAGCACGTGGTGGG,-0.502
13,TGGCGCACGTGAGAGG,0.167
14,TGAATCACGTGAGGAT,1.34
15,TTACGCACGTGTTTGA,-0.879
16,CGGTTCACGTGGCTGT,0.544
17,GCATTCACGTGGAGGT,1.26
18,GGTAACACGTGATGTT,0.795
19,AGTTACACGTGTTGAG,0.879
20,AGGTACACGTGATTGG,0.544
21,TATTACACGTGGTATC,-0.209
22,CTGAGCACGTGTTGAG,0.0837
23,TCATTCACGTGCTTGG,1.59
24,TATTCCACGTGATGAG,0.628
25,GAATTCACGTGGAAGT,2.01
26,AAGAGCACGTGTGGGT,-0.377

row,Sequence,relative binding free energy [kJ/mol]
1,TATTGCACGTGATCTG,0.544
2,GATAGCACGTGCGGTT,-0.167
3,GTTTACACGTGATAGT,0.46
4,TGGGGCACGTGGTGCC,-0.669
5,AGGTGCACGTGGCGAT,0.0837
6,TGTTCCACGTGTTAAG,0.837
7,TGTGACACGTGGTGCT,-0.377
8,ACTGGCACGTGAGGTA,0.0837
9,AGCGCCACGTGGGGGA,-0.837
10,TTTTTCACGTGTCGCG,1.3
11,TATCCCACGTGGGGGG,-0.586
12,TGAGGCACGTGGCGTC,-1.21
13,TAGGTCACGTGTGCCG,0.46
14,GGAAGCACGTGTGATG,-0.418
15,CGATTCACGTGCTTGT,1.51
16,GGGCGCACGTGGTGAC,-0.167
17,AGTGCCACGTGTGGTT,0.293
18,AGTGTCACGTGTAGGA,-0.293
19,GTTAACACGTGAGGAG,0.377
20,TTCATCACGTGAGAGT,1.42
21,CTGTCCACGTGGTAGG,0.46
22,GGTAGCACGTGAGTAT,0.628
23,TGTAGCACGTGGGTTG,-0.753
24,TTGAACACGTGTGAAT,0.753
25,CGGAACACGTGGTTGG,0.126
26,TCGTGCACGTGTCTTG,-0.293

row,Sequence,relative binding free energy [kJ/mol]
1,TGGCACACGTGGTTGG,0.167
2,TGGGCCACGTGCGGGT,-0.669
3,TTATGCACGTGGTCTT,-0.544
4,GTTGTCACGTGTGTAG,0.377
5,TTGGGCACGTGTCGTA,-0.46
6,TTTAGCACGTGAAGTA,1
7,GTTACCACGTGGTGTT,-0.46
8,ATGGTCACGTGTAGAG,0.586
9,TAGGGCACGTGGCCAG,-0.711
10,CGGGGCACGTGGGGAT,-0.711
11,CCTGTCACGTGGGTGG,-0.544
12,CACTGCACGTGGGTTG,-0.544
13,TGCTGCACGTGGGTAA,-0.711
14,GCTTTCACGTGTGGGA,0.837
15,TGCAGCACGTGGTATG,-0.544
16,TAAGTCACGTGATAAT,0.711
17,TACTGCACGTGGGGAT,-0.586
18,TTAAGCACGTGAAGGG,1.3
19,AGTTTCACGTGATTGG,1.34
20,CAGGGCACGTGATGGT,-0.126
21,CTGGGCACGTGGAAGG,-0.46
22,GTTTGCACGTGTGTCC,0.544
